# Some of the results follow. These are noisy estimates, calculated here from bound and input reads.
# Biological target: T1, Pho4 (S. cerevisiae) (UniProt P07270)
# T1 sequence: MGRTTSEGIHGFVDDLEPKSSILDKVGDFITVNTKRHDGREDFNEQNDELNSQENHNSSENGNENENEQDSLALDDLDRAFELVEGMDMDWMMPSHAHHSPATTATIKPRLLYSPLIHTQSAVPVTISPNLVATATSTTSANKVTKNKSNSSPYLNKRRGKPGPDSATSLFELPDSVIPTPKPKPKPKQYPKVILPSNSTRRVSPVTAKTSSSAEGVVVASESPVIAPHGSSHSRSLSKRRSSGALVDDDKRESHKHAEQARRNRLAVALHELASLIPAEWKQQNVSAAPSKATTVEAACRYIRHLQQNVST
# Experiment: relative binding free energy (BET-seq); higher = weaker binding
# Settings: reference: library average
row,Sequence,relative binding free energy
1,CTTGGCACGTGACAGG,0.209 kJ/mol
2,TGGTCCACGTGACGGT,0.837 kJ/mol
3,TACTTCACGTGTTGGA,1.05 kJ/mol
4,GGCGTCACGTGTGAGT,0.628 kJ/mol
5,CTGGTCACGTGAGGTG,1.34 kJ/mol
6,GTAAGCACGTGCGGCG,0.335 kJ/mol
7,AATGACACGTGATGGG,0.126 kJ/mol
8,GATGTCACGTGCTGTA,0.251 kJ/mol
9,GGTCTCACGTGCGGTG,0.544 kJ/mol
10,TATAACACGTGTGAAG,0.753 kJ/mol
11,TGTGACACGTGAGGGA,1.34 kJ/mol
12,GGATGCACGTGTGTAT,0.335 kJ/mol
13,CGTTTCACGTGAATTT,1.42 kJ/mol
14,ATAGGCACGTGATGCG,-0.0837 kJ/mol
15,ATTTGCACGTGAGTTA,0.92 kJ/mol
16,TAAGTCACGTGTGGTG,0.795 kJ/mol
17,AGTTACACGTGTCGTG,0 kJ/mol
18,ATTGGCACGTGTTATA,-0.879 kJ/mol
19,TATGCCACGTGTTGCG,-0.502 kJ/mol
20,ATAGGCACGTGTATAG,-0.167 kJ/mol
21,TTCATCACGTGGGTTT,0.46 kJ/mol
22,GGGTCCACGTGTGGAC,1.09 kJ/mol
23,CTGGGCACGTGGAGGG,-0.293 kJ/mol
24,TTGAGCACGTGTGTTC,-0.126 kJ/mol
25,GATAGCACGTGGGGTA,-0.46 kJ/mol

row,Sequence,relative binding free energy
1,GATGTCACGTGGTTCT,0.293 kJ/mol
2,GTGTTCACGTGTACAG,0.753 kJ/mol
3,TTCGCCACGTGGGTGT,-0.669 kJ/mol
4,AGCGTCACGTGCTGGG,-0.126 kJ/mol
5,AGCGTCACGTGGGAAA,0.628 kJ/mol
6,AGGGGCACGTGAATTA,0.126 kJ/mol
7,ATTTTCACGTGCTCGG,0.586 kJ/mol
8,TGGTGCACGTGACTTT,0.544 kJ/mol
9,GGGCACACGTGGACGG,0.418 kJ/mol
10,GTCGACACGTGGGGGA,-0.126 kJ/mol
11,GTTGGCACGTGCGATT,-0.0418 kJ/mol
12,ATTCGCACGTGTAGCG,0.209 kJ/mol
13,TAGTGCACGTGGGTTT,-0.209 kJ/mol
14,GCCGTCACGTGAGGGG,1.09 kJ/mol
15,GGAAGCACGTGGCGGT,-1.09 kJ/mol
16,TGGGTCACGTGAGCGC,0.879 kJ/mol
17,AGAGTCACGTGGTCGG,0.126 kJ/mol
18,TAGGTCACGTGTAGGC,0.962 kJ/mol
19,TGGGGCACGTGTGGCT,-0.669 kJ/mol
20,GGGTGCACGTGCCTTT,0.0837 kJ/mol
21,TGTATCACGTGGGAAT,0.837 kJ/mol
22,GTCTTCACGTGTTTTA,1.21 kJ/mol
23,AAGGTCACGTGTTGGA,0.669 kJ/mol
24,TGGAGCACGTGCTGTA,-0.711 kJ/mol
25,TGCAGCACGTGCGAGT,0.209 kJ/mol

row,Sequence,relative binding free energy
1,GACGACACGTGGTGGG,0.251 kJ/mol
2,GTTTGCACGTGCGAAT,0.335 kJ/mol
3,GTTTTCACGTGCTTCG,1.34 kJ/mol
4,GAGGACACGTGGGGTC,-0.335 kJ/mol
5,ATAGGCACGTGGTCGG,-1.3 kJ/mol
6,AACGTCACGTGAGAGT,1.42 kJ/mol
7,TGGTTCACGTGAAGGA,1.97 kJ/mol
8,ACTCGCACGTGTGGTG,0.0418 kJ/mol
9,GTTCTCACGTGGTTAG,1.59 kJ/mol
10,TTTTGCACGTGGACAA,0.586 kJ/mol
11,TATGGCACGTGAATGT,0.879 kJ/mol
12,GAGGTCACGTGAAATG,1.67 kJ/mol
13,AGTCGCACGTGGGGCG,-1.21 kJ/mol
14,GTTCGCACGTGAGGCA,1.51 kJ/mol
15,TTGGTCACGTGCGAGC,0.46 kJ/mol
16,TGATTCACGTGTGGTA,1.34 kJ/mol
17,TAAGACACGTGATGTG,0.628 kJ/mol
18,GCTTGCACGTGAGAGT,0.837 kJ/mol
19,TAGGGCACGTGTAGAT,0.628 kJ/mol
20,AGAGGCACGTGATGAG,-0.0837 kJ/mol
21,TTGGTCACGTGTTGCG,0.962 kJ/mol
22,TTTTGCACGTGGTCTC,-0.0418 kJ/mol
23,GCGGGCACGTGGTTAT,0.167 kJ/mol

# Reference: the BET-seq Pho4 binding data (Le et al. 2018)
